This note sets out measurements from ChEMBL document CHEMBL4888484, “Replenishing the malaria drug discovery pipeline: Screening and hit evaluation of the MMV Hit Generation Library 1 (HGL1) against asexual blood stage Plasmodium falciparum ,using a nano luciferase reporter read-out” (2022).

Hit rate of the full screen: of about 150,000 compounds, about 540 (0.36%) showed an effect of 50% or more. The list shows a part of the results.

For this assay, the system named is Plasmodium falciparum. In words: Primary screen in NF54 nanoGlo assay, in single point, at 2uM, 72h; a lower Z score goes with more inhibition. It is filed as functional, Erythrocyte. Particulars: timepoint 72 hour.
For orientation: % Inhibition means the relative decrease from the control value, in per cent. Regarding `Cc1cc(C)nc(NC(=O)C2C(C)(C)C2(C)C)n1`, the “% Inhibition” value is -12% and the Z score came to 1.45.

Take `Cc1ccccc1N(C(=O)c1nnn(C(C)(C)C)n1)c1nc2ccccc2s1`: the “% Inhibition” value is given as -3% and the Z score was determined as 0.61.

Turning to `O=C(CCC1CC1)N1CCC(c2c[nH]cn2)CC1`, the “% Inhibition” value is given as 19% and the Z score is given as -2.48.

Turning to `O=C(c1ccncc1)N1C[C@@H]2C[C@H](C1)c1ccc(-c3cccnc3)c(=O)n1C2`, the “% Inhibition” value is given as 5% and the Z score is -0.67.

Turning to `CCCc1cnc(C)nc1N1CCC2(CC1)CN[C@H](C(=O)O)C2`, the “% Inhibition” value is -6% and the Z score is listed as 0.74.

Take `Fc1cc2c(s1)C1(CCNCC1)OCC2`: the “% Inhibition” value is recorded as -2% and the Z score was 0.2.

For `O=C(CN1C[C@H](C(=O)O)[C@@H](c2ccc(F)cc2)C1)NCc1cccs1`, the “% Inhibition” value is -7% and the Z score amounted to 1.39.

Consider `CCCn1ncc(C(=O)N[C@]2(C(=O)O)CCCc3ccccc32)c1C`, for which the “% Inhibition” value was -3% and the Z score is 0.52.

With `Cc1n[nH]c(C)c1CNCCc1ccc2c(c1)OCCO2`, the “% Inhibition” value was -1% and the Z score amounted to 0.23.

Regarding `O=C(CN1CCN(C(=O)Nc2ccccc2)CC1=O)N1CCC2(CC1)OCCO2`, the “% Inhibition” value is -7% and the Z score came to 1.4.

Consider `N#Cc1c(CN2CCC[C@]3(CC=CCC3)C2)cn2ccccc12`, for which the “% Inhibition” value is -9% and the Z score is given as 0.73.

As for `O=C1NCCN2CCN(C(=O)Cc3ccc(Cl)cc3)CC[C@@H]12`, the “% Inhibition” value is on record as -4% and the Z score is 0.74.

As to `O=c1ccc(-c2ccccc2F)c2n1C[C@H]1C[C@@H]2CN(Cc2ccc(F)cc2)C1`, the “% Inhibition” value was found to be 31% and the Z score is given as -3.46.

`COc1cccc(CC(=O)N2CC(N3CC(F)(F)C[C@H]3CO)C2)c1`: the “% Inhibition” value is on record as -6% and the Z score is reported as 0.75.

Turning to `CCCn1c(=O)oc2cc(NS(=O)(=O)c3ccc(C4CCCCC4)cc3)ccc21`, the “% Inhibition” value is -11% and the Z score amounted to 1.41.

Turning to `CCN(CC)CCN(C(=O)Cc1ccc2c(c1)OCO2)c1nc2c(C)c(C)ccc2s1`, the “% Inhibition” value is given as -3% and the Z score is reported as 0.29.

As for `O=C(O)[C@@]12COc3ccccc3[C@@H]1CN(Cc1cc(-c3ccccc3)no1)C2`, the “% Inhibition” value is 8% and the Z score is -1.36.

Turning to `O=C(c1cccc(Cl)c1)[C@H]1CCCN(Cc2cccc3c2OCO3)C1`, the “% Inhibition” value is listed as -14% and the Z score was found to be 2.05.

As for `O=C(c1ccc2oc(=O)[nH]c2c1)N1CCCC[C@@]12CCOC2`, the “% Inhibition” value is on record as -11% and the Z score is 1.13.

For `O=C(Cc1ccccc1)N1CCN(CC2CC3C=CC2C3)CC1` (stereo unspecified), the “% Inhibition” value is reported as -12% and the Z score is on record as 1.55.

Regarding `CN1CC[C@@]2(CCCN(c3ccncc3F)C2)C1`, the “% Inhibition” value is reported as -8% and the Z score was 0.76.

As for `C[C@]1(CNC(=O)Nc2cccc3[nH]c(=O)oc23)CCOC1`, the “% Inhibition” value was -14% and the Z score turned out to be 2.75.

Regarding `C[C@@H](Cc1ccccc1F)NCC(F)(F)CO`, the “% Inhibition” value is on record as -7% and the Z score is recorded as 1.04.
